This passage reports self-cleavage results from the RNAGym collection of RNA variant scans (doi:10.7554/elife.90254).

Read counts are not given, so values of variants with three or more changes are uncertain.

First the molecules themselves.
B1: OR4K15 (parent)
chain: GUUAACGGUCAUAGGCCAUGGAAACUAGGAGCACCAUUUCGCUGCCAGUGAAGAAAUGAACAAAGAAAAUCUGGGCCAGGCAGGCAUCAAAAGAAAUAGUCUUGCGCUCAACCAGAAAGUCUGUAAUCAUUUUAAGGGUA

In this data set the parent is B1. The data set can be described thus: self-cleavage, relative activity (ratio to wild type); higher = more cleavage; in vitro, sequencing; the parent is a self-cleaving ribozyme.
As for GUUAACGGUCAUAGGCCACGGAAACUAGGAGCACCAUUUCGCUGCCAGUGAAGAAAUGAACAGAGAAAAUCUGGGCCAGGCAGGCAUCAAAAGAAAUAGUCUUGCGCUCAACCAGAAAGUCUGUAACCAUUUUAAGGGUU, the self-cleavage amounted to 0.96.
For GUUAACGGUCAUAGGCCACGGAAACUAGGAGCACCAUUUCGCUGCCAGUGAAGAAAUGAACAAAGAGAAUCUGGGCCUGGCGGGCAUCAAAAGAAAUAGUCUUGCGCUCAACCAGAAAGUCUGUAAUCAUUUUAAGGGUA the value was 0.12.
Next, GUUAACGGUCAUAGGCCACGGAAACUAGGAGCACCAUUUCGCUGCCAGUGAAGAAAUGAACAAAGAAAAUCUGGGCCAGGCAGGCAUCAAAAGAAAUAGUCUUGCGCUCAGCCAGAAAGUCUGUAAUCAUUUUAAGGGUG: 0.03; GUUAACGGUCAUAGGCCACGGAAACUAGGAGCACCAUUUCGCUGCCAGUGAAGAAAUGAACAAAGAAAAUCUGGGCCAGGCAGGCAUCAAAAGAAAUAGUCUUGCGCUCAACCAGAAGGCCUGUAAUCAUUUUAAGGGUA: 0.89.
For GUUAACGGUCAUAGGCCACGGAAACUAGGAGCACCAUUUCGCUGCCAGUGAAGAAAUGAACAAAGAAAAUCUGGGCCAGGCGGGCAUCAAGAGAAAUAGUCUUGCGCUCAACCAGAAAGUCCGUAAUCAUUUUAAGGGUA the value was 0.06.
For the variant GUUAACGGUCAUAGGCCACGGAAACUAGGAGCACCAUUUCGCUGCCAGUGAAGAAAUGAACAAAGAAAAUCUGGGCCAGGCAGGCAUCAAAAGAAAUGGUCUUGCGCUCAACCAGAAAGUCCGUAAUCAUUUUAAGGGUA, the self-cleavage was 0.27.
Next, GUUAACGGUCAUAGGCCACGGAAACUAGGAGCAUCAUCUCGCUGCCAGUGAAGAAAUGAGCAAAGAAAAUCUGAGCCAGGCAGGCAUCAAAAGAAAUAGUCUUGCGCUCAACCAGAAAGUCUGUAAUCAUUUUAAGGGUA: 0.33; GUUAACGGUCAUAGGCCACGGAAACUAGGAGCACCAUUUCGCUGCCAGUGAAGAAAUGAACAAAGAAGAUCUGGGCCAGGCAGGCAUCAAAAGAAGUAGUCUUGCGCUCAACCAGAAAGUCUGUAAUCAUUUUAAGGGUA: 0.31; GUUAACGGUCAUAGGCCACGGAAACUAGGAGCACCAUUUCGCUGCCAGUGAAGAAAUGAACAAAGAAAAUCUGGGCCAGGCUGGCAUCAAAAGAAAUAGUCUCGCGCUCAACCAGGAAGUCUGUAAUCAUUUUAAGGGUA: 0.02.
For GUUAACGGUCAUAGGCCACGGAAACUAGGAGCACCAUUUCGCUGCCAGUGAAGAAAUGAACAAAGAAAAUCUGGGCCAGGCAGGCAUCAAGAGAAAUAGUCUUGCGCUCGACCAGAAAGUCUGUAAUCAUUUUAAGGGUA the value was 0.14; for GUUAACGGUCAUAGGCCACGGAAACUAGGAGCACCAUUUCGCUGCCAGUGAAGAAAUGAACAAAGAAAAUCUGGGCCCGGCAGGCAUCAAAAGAAAUAGUCUUGCGCUCAACCUGAGAGUCUGUAAUCAUUUUGAGGGUA, 0.03.
Next, GUUAACGGUCAUAGGCCACGGAAACUAGGAGCACCAUUUCGCUGCCAGUGAAGAAAUGAACAAAGAAAAUCUGGGCCAGGCGGGCAUCAAAAGAAAUAGUCUUGCGCUCAACCAGAAGGUCUGUAAUCAUUUUAAGGGUA: 0.15; GUUAACGGUCAUAGGCCACGGAAACUAGGAGCACCAUUUCGCUGCCAGUGAAGAAAUGAACAAAGAAAAUCUGGGCCAGGCAGGCGUCAAAAGAAAUAGCCUUGCGCUCAACCAGAAAGUCUGUAAUCAUUUUAAGGGUA: 2.7.
GUUAACGGUCAUAGGCCACGGAAACUAGGAGCACCAUUUCGCUGCCAGUGAAGAAAUGAACAAAGAAAAUCUGGGCCAGGCAGGCAUCAAAAGAAAUAGUCUUGCGCUCAACCAGAGAGUCUGUGAUCAUUUUAAGGGUA: the self-cleavage turned out to be 0.33.
Next, GUUAACGGUCAUAGGCCACGGAAACUAGGAGUACCAUUUCGCCGCCAGUGAAGAAAUGAACAAAGAAAAUCUGGGCCAGGCAGGCAUCAAAAGAAAUAGUCCUGCGCUCAACCAGAAGGUCUGUAAUCAUUUUAAGGGUA: 1.67; GUUAACGGUCAUAGGCCACGGAAACUAGGAGCACCAUUUCGCUGCCAGUGAAGAAAUGAACAAAGAAAAUCUGGGCCGGGCAGGCAUCAAAAGAAAUAGUCUCGCGCCCAACCAGAACGUCUGUAAUCAUUCUAAGGGUG: 0; GUUAACGGUCAUAGGCCACGGAAACUAGGAGCACCAUUUCGCUGCCAGUGAAGAAAUGAACAAAGAAAAUCUGGGCCAGGCUGGCAUCAAAAGAAAUAGUCUAGCGCUCAACCAGAAAGUCUGUAAUCAUUUUAAGGGUA: 0.76.
For GUUAACGGUCAUAGGCCACUGAAACUAGGAGCACCAUUUCGCUGCCAGUGAAGAAAUGAACAAAGAAAAUCUGGGCCAGGCAGGCAUCAAAGGAAAUAGUCUUGCGCUCAACCAGAAAGCCUGUAAUCAUUUUAAGGGUA the value was 0.89; for GUUAACGGUCAUAGGCCACGGAAACUAGGAGCACCAUUUCGCUGCCAGUGAAGAAAUGAACAAAGGAAAUCUGGGCCAGGCAGGCAUCAAAAGAAAUAGUCUUGCGCUCAACCAGGAAGUCUGUAAUCAUUUUAAGGGUA, 0.15.
Next, GUUAACGGUCAUAGGCCACGGAAACUAGGAGCACCAUUUCGCUGCCAGUGAAGAAAUGAACAAAGAAAAUCUGGGCCAGGCAGGCAUCAAAAGAAAUAGUCUUGCGCUCAACCUGAAAGUCUGUAGUCAUUUUAAGGGUA: 0.11; GUUAACGGUCAUAGGCCACGGAAACUAGGAGCACCAUUUCGCUGCCAGUGAAGAAAUGAACAAAGAAGAUCUGGGCCAGGCAGGCAUCAAUAGAAAUAGUCUUGCGCUCAACCGGAAAGUCUGUAAUCAUUUUAAGGGUA: 0.57; GUUAACGGUCAUAGGCCACGGAAACUAGGAGCACCAUUUCGCUGCCAGUGAAGAAAUGAAUAAAGAAAAUCUGGGCCAGGCAGGCAUCAAAAGAAAUAGUCUUGCGCUCAACCAGAAGGUCUGUAAUCAUUUUAAGGGUA: 0.82.
Regarding GUUAACGGUCAUAGGCCACGGAAACUAGGAGCACCAUUUCGCUGCCAGUGAAGAAAUGAACAAGGAAAAUCUGGGCCAGGCGGGCAUCAAAAGAAAUAGUCUUGCGCUCAACCAGAAAGUCUGUAAUCAUUUUAAGGGUA, the self-cleavage was determined as 0.49.
For GUUAACGGUCAUAGGCCACGGAAACUAGGAGCACCAUUUCGCUGCCAGUGAAGAAAUGAACAAAGGAAUUCCGGGCCAGGCAGGCAUCAAAAGAAAUGGUCUUGCGCUCGACCAGAAAGUCUGUAAUCAUUUUAAGGGUA the value was 0.02; for GUUAACGGUCAUAGGCCACGGAAACUAGGAGCACCAUUUCGCUGCCAGUGAAGAAAUGAACAAAGAAAAUCUGGGCCAGGCGGGCAUCAAAAGAAGUAGUCUUGCGCUCAACCAGAAAGUCUGUAAUCAUUUUAAGGGUA, 0.48; for GUUAACGGUCAUAGGCCACGGAAACUAGAAGCGCCAUUUCGCUGCCAGUGAAGAAAUGAACAAAGAAAAUCUGGGCCAGGCAGGCAUCAAAAGAAAUAGUCUUGCGCUCAGCCAGAGAGUCUGUAAUCAUUUUAAGGGUA, 0.01.
Next, GUUAACGGUCAUAGGCCACGGAAACUAGGAGCACCAUUUCGCUGCCAGUGAAGAAAUGAACAAAGAAAAUCUGGGCCAGGCAGGCUUCAAAAGAAAUAGUCUUGCGCUCAGCCAGAAAGUCUGUAAUCAUUUUAAGGGUA: 0.02; GUUAACGGUCAUAGGCCACGGAAACUAGGAGCACCAUUUCGCUGCCAGUGAAGAAAUGAACAAAGAAAAUCUGGGCCAGGCAGGCAUCAAAAGAAAUAGUCUUGCGCUCAUCCAGAAAGUCUGGAAUCAUUUUAAGGGUA: 0.05.
Take GUUAACGGUCAUAGGCCACGGAAACUAGGAGCACCAUUUCGCUGCCAGUGAAGAAAUGAACAAAGAAAAUCUGGGCCAGGCAGGCAUCAAAAGAAAUAGUCUUGCGCUCAGCCAGGAAGUCUGUAAUCAUUUUAAGGGUA: the self-cleavage is 0.01.
For GUUAACGGUCAUAGGCCACGGAAACUAGGAGCACCAUUUCGCUGCCAGUGAAGAAAUGAACAAAGAAAAUCUGGGCCAGGCAGGCAUCAAAGGAAAUAGUCUUGCGCUCAACCAGAAAGGCUGUGAUCAUUUUAAGGGUA the value was 0.47; for GUUAACGGUCAUAGGCCACGGAAACUAGGAGCACCAUUUCGCUGCCAGUGAAGAAAUGAACAAAGAAAAUCUGGGCCAGGCGGGCAUCAAAUGAAAUAGUCUUGCGCUCAACCAGAAAGUCUGUAAUCAUUUUAAGGGUA, 0.43.
In the case of GUUAACGGUCAUAGGCCACGGAAACUAGGAGCACCAUUUCGCUGCCAGUGAAGAAAUGAACAAAGAAAAUCUGGGCCAGGCAGGCAUCAAAAGAGAUAGUCUUGCGCUCAACCAGAAAGUCUGCAAUCAUUUUAAGGGUA, the self-cleavage turned out to be 0.43.
Next, GUUAACGGUCAUAGGCCACGGAAACUAAGAGCACCAUUUCGCUGCCAGUGAAAAAAUGAACAAAGAAAAUCUGGGCCAGGCAGGCAUCAAAAGAAAUAGUCUUGCGCUCAACCAGAAAGUCUGUAAUCAUUUUAAGGGUA: 0.94; GUUAACGGUCAUAGGCCACGGAAACUAGGAGCACCAUUUCGAUGCCAGUGAAGGAAUGAACAAAGAAAAUCUGGGCCAGGCAGGCAUCAAAAGAAAUAGUCUUGCGCUCAACCAGAAAGUCUGUAAUCAUUUUAAGGGUA: 1.51.
For GUUAACGGUCAUAGGCCACGGAAACUAGGAGCACCAUUUCGCUGCCAGUGAAGAAAUGAACAAAGAAAAUCUGGGCCAGGCAGGCGUCAAAAGAAGUAGUCUUGCGCUCAACCAGAAAGUCUGUAAUCAUCUUAAGGGUA the value was 1.7.
Next, GUUAACGGUCAUAGGCCACGGAAACUAGGAGCACCAUUUCGCUGCCAGUGAAGAAAUGAACAAAGAAAAUCUGGGCCAGGCAGGCAUCAAAGGAAAUAGCCUUGCGCUCAACCAGAAAGUCUGUAAUCAUUUUAAGGGUA: 2.1; GUUAACGGUCAUAGGCCACGGAAACUAGGAGCACCAUUUCGCUGCCAGUGAAGAAAUGAACAAAGAAAAUCUGGGCCAGGCAGGCAUCGAAAGAAAUAGUCUUGCGCUCAACCAGAAAGUCCGUAAUCAUUUUAAGGGUG: 0.76; GUUAACGGUCAUAGGCCACAGAAACUAGGAGCACCAUCUCGCUGCCAGUGAAGAAAUGAACAAAGAAAAUCUGGGCCAGGCGGGCAUCUAAAGGAAUAGUCUUGCGCUCAACCAGAAAGUCUGUAACCAUUUUAAGGGUA: 0.24.
Regarding GUUAACGGUCAUAGGCCACGGAAACUAGGAGCACCAUUUCGCUGCCAGUGAAGAAAUGAACAAGGUAAAUCUGGGCCAGGCAGGCAUCAAAAGAAAUAGUCUUGCGCUCAACCAGAAAGUCUGUAAUCAUUUUAAGGGUA, the self-cleavage turned out to be 1.45.
Next, GUUAACGGUCAUAGGCCACGGAAACUAGGAGCACCAUUUCGCUGCCAGUGAAGAAAUGAACAAAGGAAAUCUGGGCCAGGCAGGCAUCAAAAGAAAUAGUCUAGCGCUCAACCAUAAAGUCUGUGAUCAUUUUAAGGGUA: 0; GUUAACGGUCAUAGGCCACGGAAACUAGGAGCACCAUUUCGCUGCCAGUGAAGAAAUGAACAAAGGAAAUCUGGGCCAGGCAGGCAUCAGAAGAAAUAGUCUUGCGCUCAACCAGAAAGUCUGUAAUCAUUUUAAGGGUA: 1.46.
